Reference: PubChem BioAssay AID485294 (National Center for Advancing Translational Sciences (NCATS), 2010)
The whole screen tested about 370,000 compounds, of which about 150 (0.041%) were called active. Inconclusive means that the source gave no clear call. Such entries were picked first, then a sample of the others. Calls follow the shape of the dose curve; as a rule, active = well fitted inhibition curve with a large enough effect; inconclusive = small, poorly fitted or top-dose-only effect; inactive = flat fitted curve, though single readings scatter. No potency is given beside an inconclusive call; the fits are too rough.

molecular target: Beta-lactamase (Escherichia coli (strain K12)) (UniProt P00811); assay: qHTS Inhibitors of AmpC Beta-Lactamase (assay with detergent); conditions: AmpC hydrolysis of nitrocefin, absorbance 480 nm, 0.01% Triton; activity change, negative = inhibition: at 114 µM (top of the series); also: nearly all actives have a fitted effect of over 25% in size;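 as to activity change, negative = inhibition: 0% = no-compound wells and -100% = no-enzyme wells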
Sequence of UniProt P00811 (P00811 whole entry, looked up): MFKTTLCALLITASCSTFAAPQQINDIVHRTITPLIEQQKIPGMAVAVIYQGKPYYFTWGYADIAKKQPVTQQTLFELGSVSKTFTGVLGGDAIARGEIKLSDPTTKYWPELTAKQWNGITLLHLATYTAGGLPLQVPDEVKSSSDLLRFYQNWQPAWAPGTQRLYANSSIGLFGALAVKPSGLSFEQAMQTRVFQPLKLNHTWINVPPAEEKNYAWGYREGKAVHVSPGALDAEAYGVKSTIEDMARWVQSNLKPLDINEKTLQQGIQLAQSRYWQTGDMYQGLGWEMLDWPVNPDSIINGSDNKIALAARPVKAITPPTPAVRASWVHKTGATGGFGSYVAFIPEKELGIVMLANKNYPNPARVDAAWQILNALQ
Outline: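 20 mM phosphate pH 7.0 + 0.01% (detergent screen) or 0.0001% Triton X-100; 5.3 nM AmpC reagent; cpd preinc 15 min RT; nitrocefin (800 uM stock) to start; A480 q20 s × 4 min; Activity was normalised to no-enzyme and no-compound control wells.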
Potency is read from the fitted curve at half-maximal effect; tags tell the direction and shape of the fitted curve.

Row | Compound | Potency | activity change, negative = inhibition
1 | Cc1cc(=O)n2nc(N3CCCC3C(=O)NCc3ccccn3)sc2n1 (stereo unspecified) | inconclusive [inhibitor, full curve, poor fit] | –
2 | Cc1cnn(C(=S)NCc2ccc(Cl)cc2)c1 | inconclusive [inhibitor, full curve, poor fit] | –
3 | Cc1ccc(NC(=O)Cn2ccn(-c3ccc(F)c(F)c3)c(=O)c2=O)cc1C | – | inactive: 8.23%
4 | O=C(Nc1nnc(C2CC2)o1)c1ccc(S(=O)(=O)N2CCc3ccccc3C2)cc1 | inconclusive [inhibitor, full curve] | –
5 | Cc1ccc(Nc2c(-c3ccccn3)nc3cccc(C)n23)cc1 | inconclusive [inhibitor, single point] | –
6 | Cc1nc(N/N=C/c2cccc(F)c2)cc(N2CCOCC2)n1 | inconclusive [inhibitor, full curve, poor fit] | –
7 | O=C(CSc1nnc2ccccn12)Nc1ccc2c(c1)OCCO2 | inconclusive [inhibitor, single point] | –
8 | O=C(c1ccc(CSc2nc3ccncc3n2Cc2ccccc2)cc1)N1CCCCCC1 | – | inactive: -1.98%
9 | COc1cc2c(cc1OC)-c1cc(NC3CCCC3)nc(=O)n1CC2 | inconclusive [inhibitor, partial curve, poor fit] | –
10 | CC(=C1C2C=CC1C1C(=O)NC(=O)C21)c1ccccc1 (stereo unspecified) | inconclusive [inhibitor, full curve, poor fit] | –
11 | CCOC(=O)Cn1nnnc1C(CC)N(Cc1cc2ccc(C)cc2[nH]c1=O)C1CCCC1 (stereo unspecified) | inconclusive [inhibitor, partial curve] | –
12 | COc1ccc(-c2csc(NCc3ccco3)n2)cc1 | – | inactive: -13.5%
13 | CCOC(=O)c1cn(CC)c2ccc(S(=O)(=O)N3CC(C)CC(C)C3)cc2c1=O (stereo unspecified) | – | inactive: -3.95%
14 | Nc1c(C(=O)NC2CCCC2)c2nc3ccccc3nc2n1CC1CCCO1 (stereo unspecified) | – | inactive: 1.38%
15 | CC(C)Nc1ncnc2c1cnn2Cc1ccccc1Cl | inconclusive [inhibitor, partial curve, poor fit] | –
16 | CCC(CC)C(=O)Nc1nc2c(s1)CC(C)CC2 (stereo unspecified) | – | inactive: 17.3%
17 | Cc1cccc(NC(=O)CS(=O)(=O)c2cn(C)c3ccccc23)c1 | inconclusive [inhibitor, full curve, poor fit] | –
18 | Cc1c(Cl)cccc1NC(=O)CSc1nnc(C)n1-c1ccccc1 | inconclusive [inhibitor, partial curve, poor fit] | –
19 | COc1ccc(CCNC(=O)C2CCCN(S(=O)(=O)c3ccc(F)cc3)C2)cc1 (stereo unspecified) | – | inactive: -0.525%
20 | O=C1CC(c2ccccc2)n2nc(NC(=O)C3CCCO3)nc2N1 (stereo unspecified) | inconclusive [inhibitor, full curve, poor fit] | –
21 | Cc1oc(-c2ccccc2F)nc1CS(=O)CC(=O)NC1CCCCC1 (stereo unspecified) | inconclusive [inhibitor, full curve, poor fit] | –
22 | COc1ccc(/C=C(\C#N)C(=O)Nc2cccc3ncccc23)cc1OC | inconclusive [inhibitor, single point] | –

Row | Compound | Potency | activity change, negative = inhibition
23 | O=c1c2cc(F)ccc2[nH]c(=S)n1CCCN1CCOCC1 | inconclusive [inhibitor, full curve, poor fit] | –
24 | COc1ccc(CCNC(=O)C(=O)NCC2CCCN2S(=O)(=O)c2cc(C)ccc2C)cc1 (stereo unspecified) | inconclusive [inhibitor, partial curve, poor fit] | –
25 | Cc1ccc(C(=O)Nc2cccc(C(F)(F)F)c2)cc1Nc1cncnc1 | inconclusive [inhibitor, full curve, poor fit] | –
26 | O=C(Cc1ccccc1)NC1CCN(S(=O)(=O)c2cccc(F)c2)CC1 | inconclusive [inhibitor, full curve, poor fit] | –
27 | CCOc1ccc(N2C(=O)/C(=C/c3cc(OC)c(OC)c(OC)c3)N(CC(=O)OC)C2=S)cc1 | inconclusive [inhibitor, full curve] | –
28 | O=C(COCc1cc(-c2ccc3c(c2)OCO3)on1)N1CCN(c2ccccc2)CC1 | inactive | –
29 | COc1ccccc1N(C)S(=O)(=O)c1ccc(C(=O)Nc2ccc(C)cc2C)cc1 | inconclusive [inhibitor, partial curve] | –
30 | CC(C)C[C@H](NC(=O)N1CC(=O)Nc2ccccc21)C(=O)N[C@H](Cc1c[nH]c2ccccc12)C(=O)O | inconclusive [inhibitor, full curve, poor fit] | –
31 | COc1ccc(C)cc1NC(=O)CN1C(=O)c2cccc3cccc1c23 | inconclusive [inhibitor, full curve, poor fit] | –
32 | CCOc1ccc(S(=O)(=O)Nc2cc(OC)ccc2OC)cc1 | inconclusive [inhibitor, full curve, poor fit] | –
33 | COc1cc(OC)cc(C(=O)NN2CCCCC2)c1 | inconclusive [inhibitor, full curve, poor fit] | –
34 | O=C(CN1CCN(c2cccc(Cl)c2)CC1)Nc1ccc([N+](=O)[O-])cc1C(=O)Nc1ccccc1F | inconclusive [inhibitor, partial curve] | –
35 | COc1ccc(S(=O)(=O)Nc2ccc3c(c2)CCCN3S(=O)(=O)c2ccc(C)cc2)cc1F | – | inactive: 9.51%
36 | Cc1cccc(NC(=O)CN2C(=O)c3ccccc3S2(=O)=O)n1 | inconclusive [inhibitor, full curve, poor fit] | –
37 | COC(=O)c1oc2ccc(Br)cc2c1-n1cccc1 | inconclusive [inhibitor, partial curve, poor fit] | –
38 | O=C(COC(=O)CNC(=O)c1ccccc1F)Nc1nnc(-c2ccccc2)o1 | inconclusive [inhibitor, full curve, poor fit] | –
39 | Cc1ccc(N=C2CCCCCN2C)c(C#N)c1 | – | inactive: 1.22%
40 | Cc1cc(C)c2c(n1)sc1c(O)cc(=O)[nH]c12 | – | inactive: 2.44%
41 | CCN1CCN(C(CNS(=O)(=O)c2ccccc2)c2ccccc2)CC1 (stereo unspecified) | inconclusive [inhibitor, full curve, poor fit] | –
42 | CCc1ccc(OCC(=O)N/N=C/c2cc([N+](=O)[O-])ccc2N2CCOCC2)cc1 | inconclusive [inhibitor, full curve, poor fit] | –
43 | CC1(C)Cc2c(sc3c2C(=O)NC(c2cccnc2)N3)CO1 (stereo unspecified) | inconclusive [inhibitor, partial curve] | –
44 | Cc1sc2nc(-c3ccc(Br)cc3)oc(=O)c2c1C | inconclusive [inhibitor, partial curve] | –

Row | Compound | Potency | activity change, negative = inhibition
45 | O=C(CC1Sc2ccccc2NC1=O)c1ccc(Br)cc1 (stereo unspecified) | – | inactive: -1.95%
46 | COc1cc(NC(=O)c2cc(C)on2)cc(OC)c1OC | inconclusive [inhibitor, full curve, poor fit] | –
47 | CC(=O)/C=C1/SC(CC(=O)O)C(=O)N1c1ccccc1 (stereo unspecified) | inconclusive [inhibitor, full curve, poor fit] | –
48 | CCCOC(=O)c1ccc(NC(=O)c2ccccc2OC)cc1 | inconclusive [inhibitor, single point] | –
49 | COc1ccc([C@]23Cc4ccccc4C(O2)C2=C(O3)C(=O)c3ccccc3C2=O)cc1 | inconclusive [inhibitor, partial curve, poor fit] | –
50 | COc1ccc(C2=CC(c3ccc(F)cc3)n3nnnc3N2)cc1 (stereo unspecified) | inconclusive [inhibitor, full curve, poor fit] | –
51 | CN1C(=O)C(=O)/C(=C(/O)c2ccccc2)C1c1ccc([N+](=O)[O-])cc1 (stereo unspecified) | – | inactive: -17%
52 | O=S1(=O)CCC(S(=O)(=O)N2CCCCCC2)C1 (stereo unspecified) | inconclusive [inhibitor, single point] | –
53 | c1cncc(CSc2nnc3ccc(-c4ccco4)nn23)c1 | inconclusive [inhibitor, full curve] | –
54 | CCOC(=O)C(NCCc1ccccc1F)(NC(=O)CC)C(F)(F)F (stereo unspecified) | inconclusive [inhibitor, partial curve, poor fit] | –
55 | Cc1ccc(S(=O)(=O)N2CCOCC2)cc1C(=O)Nc1ccccn1 | inconclusive [inhibitor, partial curve] | –
56 | COc1ccc2oc(=Nc3ccc(C(=O)O)cc3)c(C(=O)NCc3ccco3)cc2c1 | inconclusive [inhibitor, full curve] | –
57 | Cc1ccc(Cc2cc(C)n[nH]c2=O)cc1 | – | inactive: -1.91%
58 | Cc1c(S(=O)(=O)Nc2cc(Cl)ccc2Cl)c(=O)n(C)c(=O)n1C | inconclusive [inhibitor, single point] | –
59 | O=C(NCCNC(=O)c1ccco1)c1ccc(Cl)c(Cl)c1 | inconclusive [inhibitor, full curve, poor fit] | –
60 | Cc1cc(C)cc(NC(=O)Cn2nnc(-c3nc(-c4ccncc4)no3)c2N)c1 | inconclusive [inhibitor, single point] | –
61 | CCC(=O)c1ccc(N2CCN(C(=O)c3ccc(F)cc3)CC2)c(F)c1 | – | inactive: 3.26%
62 | N/C(=N\OC(=O)COc1cc(Cl)c(Cl)cc1Cl)c1ccncc1 | inconclusive [inhibitor, single point] | –
63 | O=C(Nc1ccc(F)cc1)C(c1ccccc1)N1CCN(S(=O)(=O)c2ccccc2)CC1 (stereo unspecified) | – | inactive: -7.29%
64 | CCc1cccc(C)c1NC(=S)NCC1CCN(c2ccc(OC)cc2)C1 (stereo unspecified) | – | inactive: 1.64%
65 | COc1ccc(/C=C/c2cc[n+](C(=O)Cc3ccccc3)cc2)cc1 | inconclusive [inhibitor, full curve, poor fit] | –
66 | CC1Cc2ccccc2N1Cc1cc(=O)c(OCC(=O)NCCc2ccccc2)co1 (stereo unspecified) | – | inactive: 0%
